Among all 310,000 compounds or so, about 14,000 (4.5%) showed an effect of 50% or more. The effect is printed as a negative number. The list shows a part of the results.
What follows are compounds tested against human ether-à-go-go-related gene (hERG) potassium channel (human, UniProt Q12809) (assay: primary screen, population patch clamp on CHO cells stably expressing hERG).
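Also: peak tail current of the secondary pulse compared with the same well before compound.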

Chain of human ether-à-go-go-related gene (hERG) potassium channel (Q12809 whole entry, looked up): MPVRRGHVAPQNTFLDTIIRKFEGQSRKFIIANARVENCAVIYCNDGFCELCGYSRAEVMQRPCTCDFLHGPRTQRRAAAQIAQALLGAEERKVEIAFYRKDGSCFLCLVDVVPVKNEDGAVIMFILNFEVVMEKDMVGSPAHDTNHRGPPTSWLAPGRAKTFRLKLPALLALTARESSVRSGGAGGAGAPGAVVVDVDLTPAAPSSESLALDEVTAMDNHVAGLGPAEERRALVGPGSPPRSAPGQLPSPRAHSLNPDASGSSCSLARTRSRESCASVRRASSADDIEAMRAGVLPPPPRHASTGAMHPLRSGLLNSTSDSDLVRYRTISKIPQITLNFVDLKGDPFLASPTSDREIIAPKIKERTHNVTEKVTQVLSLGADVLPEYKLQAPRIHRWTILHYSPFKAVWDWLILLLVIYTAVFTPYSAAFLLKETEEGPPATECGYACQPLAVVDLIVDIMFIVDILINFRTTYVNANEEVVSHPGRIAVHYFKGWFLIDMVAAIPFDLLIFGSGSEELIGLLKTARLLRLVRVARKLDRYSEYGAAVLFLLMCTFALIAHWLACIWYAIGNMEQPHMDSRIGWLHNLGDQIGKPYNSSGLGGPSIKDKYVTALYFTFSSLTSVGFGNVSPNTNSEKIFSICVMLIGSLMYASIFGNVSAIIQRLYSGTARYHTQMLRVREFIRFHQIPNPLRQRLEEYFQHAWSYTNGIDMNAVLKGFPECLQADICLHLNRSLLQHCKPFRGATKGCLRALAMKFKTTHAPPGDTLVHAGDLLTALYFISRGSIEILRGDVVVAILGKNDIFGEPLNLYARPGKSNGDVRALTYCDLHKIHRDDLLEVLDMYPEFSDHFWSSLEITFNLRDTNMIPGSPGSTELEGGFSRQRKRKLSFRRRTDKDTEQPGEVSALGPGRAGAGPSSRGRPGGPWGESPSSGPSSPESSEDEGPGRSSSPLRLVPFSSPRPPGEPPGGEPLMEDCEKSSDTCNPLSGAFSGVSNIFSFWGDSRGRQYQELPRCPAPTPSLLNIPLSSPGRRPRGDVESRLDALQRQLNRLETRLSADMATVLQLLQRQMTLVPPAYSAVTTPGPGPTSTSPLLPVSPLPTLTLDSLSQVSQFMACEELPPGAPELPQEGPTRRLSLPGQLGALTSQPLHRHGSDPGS

Going from `O=C(COc1ccc2ccccc2c1)Nc1nc2ccccc2[nH]1` to `CC1(c2ccc3ccccc3c2)NC(=O)N(CC(N)=O)C1=O` (stereo not shown), the “hERG current change (%, negative = inhibition) at 10uM” value rises from -3.95% to 15.5%.

Compared with `CSCCC(NC(=O)c1ccccc1)C(=O)OCC(=O)Nc1ccc(C)c(Cl)c1` (stereo not shown), `O=C(N/C(=N\O)c1ccccc1)Nc1ccc(Cl)cc1` is lower in “hERG current change (%, negative = inhibition) at 10uM” value: -8.55% for the first, -27.7% for the second.

Compared with `Cn1c(=O)c2c(nc(NCCNC(=O)c3ccco3)n2Cc2ccccc2Cl)n(C)c1=O`, `C/C(Cl)=C\Cn1c(Nc2ccccc2)nc2c1c(=O)n(C)c(=O)n2C` is lower in “hERG current change (%, negative = inhibition) at 10uM” value: 14% for the first, 1.86% for the second.

Going from `Cn1ccnc1C(O)c1ccc(OCc2ccccc2)cc1` (stereo not shown) to `CCOc1ccccc1NC(=O)N1CCCc2ccccc21`, the “hERG current change (%, negative = inhibition) at 10uM” value falls from 4.19% to 3.14%.

First: COc1ccc(C2Nc3ccccc3C(=O)N2c2ccc(C)cc2)cc1Cn1nnc2ccccc21 (stereo not shown)
Second: O=C(NCc1nc2ccccc2[nH]1)C1=C[C@H](c2ccc(C(F)(F)F)cc2)C[C@H](OCc2ccc(CO)cc2)O1
The “hERG current change (%, negative = inhibition) at 10uM” value of the first is lower: -5.66% for the first, 9.06% for the second.

Going from `COc1ccccc1NC(=S)NCc1ccco1` to `S=C(NCCc1cccc(Cl)c1)NCc1ccccc1`, the “hERG current change (%, negative = inhibition) at 10uM” value falls from -9.3% to -9.71%.

Compared with `CCOC(=O)N/N=C(\C)c1ccc(C)o1`, `CCOC(=O)CNCCC(=O)c1ccc(Br)cc1` is lower in “hERG current change (%, negative = inhibition) at 10uM” value: 21.1% for the first, -11.6% for the second.

Compared with `CCSc1nnc(NC(=O)CSc2nnc(CNC(=O)c3ccc(OC)cc3)o2)s1`, `CCCn1c(SCC(=O)NNC(=O)c2ccc(OC)cc2)nnc1C(C)C` is higher in “hERG current change (%, negative = inhibition) at 10uM” value: 2.97% for the first, 20.6% for the second.

Going from `Cc1noc(C)c1S(=O)(=O)N(CCc1ccccc1)Cc1ccccc1` to `CCOC(=O)CCP(=O)(O)C(O)(c1ccccc1)c1ccccc1`, the “hERG current change (%, negative = inhibition) at 10uM” value rises from -4% to 0.636%.

First: Cc1cc(C)c(NC(=O)Cn2nnc(C(=O)NCc3cccs3)c2N)c(C)c1
Second: Cc1cc(C)c2c(c1)/C(=C/C(=O)c1ccc(Br)s1)C(=O)N2
The “hERG current change (%, negative = inhibition) at 10uM” value of the first is lower: 20% for the first, 26% for the second.

Going from `Cc1ccc(C(=O)O)c(C(=O)Nc2nc3ccccc3s2)c1` to `CCOC(=O)NNC(=O)c1[nH]c2ccc(Br)cc2c1-c1ccccc1`, the “hERG current change (%, negative = inhibition) at 10uM” value rises from -0.925% to 4.86%.

First: O=C(c1ccco1)N(CCO)Cc1cc2cc3c(cc2[nH]c1=O)OCO3
Second: Cc1ccc(NC(=O)c2ccc3c(c2)OCCO3)cc1C
The “hERG current change (%, negative = inhibition) at 10uM” value of the first is higher: 18.5% for the first, -10.4% for the second.

Going from `COc1ccc(/C(O)=C2/C(=O)C(=O)N(CCN3CCOCC3)C2c2ccccn2)cc1` (stereo not shown) to `CCOc1ccc(C(=O)C2CCN(CC(=O)Nc3ccccc3N3CCOCC3)CC2)cc1`, the “hERG current change (%, negative = inhibition) at 10uM” value falls from 0.566% to -53.6%.

Going from `O=C(NCCc1ccccc1)c1nc2nc(-c3cccs3)cc(C(F)(F)F)n2n1` to `O=C(NNc1nc(-c2ccccc2)cs1)c1cccs1`, the “hERG current change (%, negative = inhibition) at 10uM” value rises from -45.5% to 10.7%.

Going from `O=C(OCCN(CCOC(=O)c1ccncc1)S(=O)(=O)c1cccs1)c1ccncc1` to `COc1ccccc1OCCOc1ccc(/C=C2\C(=N)N3N=C(S(C)(=O)=O)SC3=NC2=O)cc1`, the “hERG current change (%, negative = inhibition) at 10uM” value rises from -77.3% to 12%.

Going from `CCN(CC)S(=O)(=O)c1ccc(N2CCOCC2)c(NC(=O)CCOc2ccccc2)c1` to `CCOC(=O)C1(CCOc2ccccc2)CCN(Cc2ccc(C#CCCO)cc2)CC1`, the “hERG current change (%, negative = inhibition) at 10uM” value falls from -36.9% to -53.3%.

First: O=C(CCN1C(=O)C2C3C=CC(C4CC34)C2C1=O)Oc1ccc(Br)cc1 (stereo not shown)
Second: CC1CCCN(C(=O)CCNS(=O)(=O)c2ccc(Br)cc2)C1 (stereo not shown)
The “hERG current change (%, negative = inhibition) at 10uM” value of the first is higher: 20.4% for the first, -32.2% for the second.

Compared with `Cc1ccsc1C1CC(=O)OC2=C1C(=O)CC(C)(C)C2` (stereo not shown), `CCOC(=O)C1=C(COC(=O)c2ccc(C)s2)NC(=O)NC1C` (stereo not shown) is lower in “hERG current change (%, negative = inhibition) at 10uM” value: 2.08% for the first, -5.32% for the second.

Compared with `COCCn1c(SCc2nc3ccccc3c(=O)[nH]2)nc2ccccc2c1=O`, `CN(C(=O)CSc1nc(C2CC2)nc2ccccc12)c1nc(-c2ccccc2)cs1` is higher in “hERG current change (%, negative = inhibition) at 10uM” value: -23.7% for the first, 2.14% for the second.

Compared with `COc1ccc(CCNC(=O)C2CCN(S(=O)(=O)N3CCOCC3)CC2)cc1OC`, `COC(=O)C1=C(c2cccc(C#N)c2)C[C@@H]2CC[C@H]1N2C(=O)N1CCOCC1` is higher in “hERG current change (%, negative = inhibition) at 10uM” value: -11% for the first, 6.41% for the second.

Compared with `CC(C)(C)CC(C)(C)NC1=CC(=O)OC12CCCCC2`, `Cc1cc(C)nc(N2CCCC(C(=O)Nc3nnc(C(C)(C)C)s3)C2)n1` (stereo not shown) is higher in “hERG current change (%, negative = inhibition) at 10uM” value: 10.4% for the first, 19.6% for the second.

Compared with `CSc1ccc(CCCCCCOC(=O)C(C)(C)C)cc1`, `CCOC(=O)Cc1csc(NC(=O)CSc2nnc(-c3ccc(NS(=O)(=O)CC)cc3)o2)n1` is lower in “hERG current change (%, negative = inhibition) at 10uM” value: 3.95% for the first, -3.35% for the second.

First: O=C(COc1cccc2c1CCN(Cc1ccccc1F)C2=O)N1CCCCC1
Second: CCCn1cc(S(=O)(=O)CC(=O)NC2CCCCC2)c2ccccc21
The “hERG current change (%, negative = inhibition) at 10uM” value of the first is lower: -43.4% for the first, -2.51% for the second.

First: COc1cc(/C=N\NC(=O)C2COc3ccccc3O2)cc(OC)c1O (stereo not shown)
Second: CC(Oc1cc(F)ccc1[N+](=O)[O-])C(=O)N(C)CC(=O)Nc1ccccc1C(F)(F)F (stereo not shown)
The “hERG current change (%, negative = inhibition) at 10uM” value of the first is lower: -23.3% for the first, 6.24% for the second.

Compared with `C=CCn1c(-c2ccc(F)cc2)n[nH]c1=S`, `CC1=C(C(=O)N2CCOCC2)C(c2ccc(O)cc2)NC(=S)N1` (stereo not shown) is lower in “hERG current change (%, negative = inhibition) at 10uM” value: 25.3% for the first, 18.5% for the second.

First: O=C(O)CC1C(=O)NCCN1C/C=C/c1ccccc1 (stereo not shown)
Second: O=C1CCCN1c1ccc(S(=O)(=O)NCc2ccc(F)cc2)cc1
The “hERG current change (%, negative = inhibition) at 10uM” value of the first is higher: 6.2% for the first, 2.94% for the second.

First: Cc1nc(N2CCN(C(=O)c3ccco3)CC2)nc2c1C(=O)CCC2
Second: CCN(CCO)c1nc(SC)nc2c1sc1nc(-c3ccco3)c3c(c12)CCC3
The “hERG current change (%, negative = inhibition) at 10uM” value of the first is higher: 2.17% for the first, 2.11% for the second.

With `CC1CCN(CCCN2C(=O)C3C(C(=O)Nc4ccc(Cl)cc4)C4C=CC3(O4)C2C(=O)NC2CCCCC2)CC1` (stereo not shown) the “hERG current change (%, negative = inhibition) at 10uM” value was -34.5%.

Source: publication PMC4336329 (PLoS ONE, 2015)
